Measured values reported in article PMC4336329 (PLoS ONE, 2015).
In all, about 310,000 compounds went through this assay and about 2,200 (0.71%) showed an effect of 50% or more. The effect is printed as a negative number. The list shows a part of the results.

Biological target: human ether-à-go-go-related gene (hERG) potassium channel (human, UniProt Q12809)
Experiment: primary screen, population patch clamp on CHO cells stably expressing hERG

Chain of human ether-à-go-go-related gene (hERG) potassium channel (Q12809 whole entry, looked up): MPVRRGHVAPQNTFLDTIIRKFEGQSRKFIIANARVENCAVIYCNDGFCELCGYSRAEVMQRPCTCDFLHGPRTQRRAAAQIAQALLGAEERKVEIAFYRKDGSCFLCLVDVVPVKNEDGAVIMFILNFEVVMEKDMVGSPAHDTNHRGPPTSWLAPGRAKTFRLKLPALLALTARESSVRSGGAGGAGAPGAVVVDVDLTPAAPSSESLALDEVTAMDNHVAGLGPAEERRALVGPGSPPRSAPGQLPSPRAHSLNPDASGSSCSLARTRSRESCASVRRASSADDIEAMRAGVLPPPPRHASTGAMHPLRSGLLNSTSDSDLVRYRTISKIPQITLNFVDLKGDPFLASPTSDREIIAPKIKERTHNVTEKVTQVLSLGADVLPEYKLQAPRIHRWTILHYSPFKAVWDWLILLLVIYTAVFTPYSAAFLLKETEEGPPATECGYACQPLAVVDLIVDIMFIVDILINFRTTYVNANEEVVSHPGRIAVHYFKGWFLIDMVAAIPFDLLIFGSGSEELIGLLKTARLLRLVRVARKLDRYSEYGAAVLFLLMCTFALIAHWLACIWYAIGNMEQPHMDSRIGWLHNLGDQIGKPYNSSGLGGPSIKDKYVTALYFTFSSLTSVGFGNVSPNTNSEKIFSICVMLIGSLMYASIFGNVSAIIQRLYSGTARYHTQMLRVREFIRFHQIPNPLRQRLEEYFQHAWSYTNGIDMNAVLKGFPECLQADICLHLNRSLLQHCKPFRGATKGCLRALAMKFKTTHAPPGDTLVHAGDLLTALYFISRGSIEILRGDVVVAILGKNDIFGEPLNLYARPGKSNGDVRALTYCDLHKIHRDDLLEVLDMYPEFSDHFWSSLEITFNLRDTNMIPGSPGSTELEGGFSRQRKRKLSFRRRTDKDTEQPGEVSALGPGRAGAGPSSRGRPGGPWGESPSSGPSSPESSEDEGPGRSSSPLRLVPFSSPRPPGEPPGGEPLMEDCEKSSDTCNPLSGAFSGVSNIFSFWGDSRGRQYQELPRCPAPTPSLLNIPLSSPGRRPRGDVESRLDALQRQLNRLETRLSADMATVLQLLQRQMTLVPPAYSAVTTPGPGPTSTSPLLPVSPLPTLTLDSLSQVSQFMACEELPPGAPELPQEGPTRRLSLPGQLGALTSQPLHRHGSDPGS

Structure (SMILES) | hERG current change (%, negative = inhibition) at 1uM
N#CCc1ccc(OC(=O)c2ccncc2)cc1 | 10.2%
CSCCC(NS(=O)(=O)c1ccccc1F)C(=O)N1CCCCCC1 (stereo not drawn) | 4.92%
Cc1nc2c(C)cccc2cc1C(=O)N/N=C/c1cccnc1 | 11.1%
COCC1CCN(C(=O)c2ccc3oc(Cc4ccc(Cl)cc4)nc3c2)C1 (stereo not drawn) | 10.6%
O=C(CCSc1ccccc1)NCc1cccnc1 | 4.47%
O=C(O)C1CCN(C(=O)c2csc(-c3ccc4c(c3)CCO4)n2)CC1 | 10.6%
CCCn1nnnc1NCc1ccc(Cl)cc1Cl | 9.92%
Cc1c(CCC(=O)NCCCn2ccnc2)c(=O)oc2cc3occ(C(C)(C)C)c3cc12 | 2.05%
COCCn1c(=O)[nH]c2cc(C(=O)NCCN3CCN(c4ccccc4)CC3)ccc2c1=O | 9.82%
CCN1CC(C)C(O)(c2ccccc2)CC1C (stereo not drawn) | 13.4%
CN1N=C2c3ccccc3CCC2C1c1ccc(C(F)(F)F)cc1 (stereo not drawn) | 7.61%
Cc1cc2c(s1)c1cnn(Cc3ccccc3F)c(=O)c1n2C | 12.7%
CC(C)Cc1ccc(C(C)C(=N)N)cc1.Cl (stereo not drawn) | 10.2%
NC(=O)c1ccc(NC(=O)CSc2nnc(-c3ccccn3)n2N)cc1 | 9.92%
Cn1c(=O)c2[nH]c(NCC3CCCO3)nc2n(-c2ccccc2)c1=O (stereo not drawn) | 2.16%
Oc1ccc(Cl)c(Cl)c1Cl | 12.6%
COc1ccc([C@H]2CC(=O)C=C(c3ccc4c(c3)sc3ccccc34)C2)cc1 | 14.1%
CC(C)CCN1CCN(Cc2ccc(C(F)(F)F)cc2)CC1CCO (stereo not drawn) | -31.6%
Cn1c(CCCOc2ccc(Cl)cc2Cl)nnc1SCC(=O)Nc1cccc(F)c1 | 1.11%
Cc1cccc(NC(=O)Cc2ccc(Br)cc2)n1 | 14%
Cc1ccc2nc(NC(=O)CN(C)S(=O)(=O)c3ccc(Br)s3)sc2c1 | 4.93%
CCCCN(C(=O)c1cccc(S(=O)(=O)N2CCOCC2)c1)c1c(N)n(CCC)c(=O)[nH]c1=O | 8.35%
Nc1nonc1-c1nc2ccccc2n1CC(=O)N/N=C\c1ccc(-c2ccc(Cl)cc2)o1 | 14.5%

Structure (SMILES) | hERG current change (%, negative = inhibition) at 1uM
O=C(CCSc1ccc(Cl)cc1)NC1CCCCC1 | 6.23%
Cc1ccc(SCC(=O)Nc2ccc(N3CCN(C)CC3)c(F)c2)c(C)c1 | -47.8%
Cc1cc(N(CN2CCCC2=O)C(=O)c2ccccc2)no1 | 14.9%
CC(C)CCn1c(S(=O)(=O)O)nc2ccccc21 | 8.63%
CC1CCc2sc3nc(N4CCN(CCO)CC4)n4ncnc4c3c2C1 (stereo not drawn) | 4.17%
C=CCOc1cc(OC)c(OC)c(OC)c1 | 11.1%
O=C(c1cc2ccccc2o1)N1CCCC1 | 15.7%
CN=C1S/C(=C\c2ccc(Cl)cc2)C(=O)N1C | 18%
Br.COc1ccccc1Nc1nc(-c2cccc([N+](=O)[O-])c2)cs1 | 8.73%
Cc1nc2ccccn2c1C(=O)C(=O)Nc1cc(F)ccc1F | 7.32%
CC1(c2ccc([N+](=O)[O-])cc2)NC(=O)N(CC(=O)Nc2cccnc2Cl)C1=O (stereo not drawn) | -1.41%
Cc1ccc(CC2S/C(=C(/C#N)C(=O)N3CCOCC3)N(c3ccccc3)C2=O)cc1 (stereo not drawn) | 2%
Cc1c(C)c2c(c(C)c1O)CCC(C)(C(=O)O)O2 (stereo not drawn) | 15.8%
CC(C)c1cc(NCc2ccccn2)n2c(nc3ccccc32)c1C#N | 6.78%
COc1ccc(CC(=O)Oc2ccc(Cl)cc2Br)cc1S(=O)(=O)N1CCOCC1 | 14.4%
O=C(Oc1ccc(/C=N/NC(=O)c2ccccn2)cc1)c1cccc(F)c1 | 4.98%
CC(=O)N1c2ccc3ccccc3c2C2C=CCC2C1c1ccc(Br)cc1 (stereo not drawn) | 10.9%
Cc1nc(-c2ccc(Cl)cc2)sc1C1(C)CC(c2ccc([N+](=O)[O-])cc2)=NO1 (stereo not drawn) | 14.9%
CN(CC(=O)Nc1ccc(N2CCOCC2)cc1)C(=O)CCNC(=O)c1ccccc1Cl | 18.1%
COC(=O)c1sccc1NC(=O)c1ccc(Cl)cc1 | 16.7%
CC1(C)CC(=O)C2=C(C1)N(c1ccccc1)C(=O)CC2c1ccc(O)cc1 (stereo not drawn) | 9.62%
CCOC(=O)NC(=O)/C(N=Nc1ccc(C(F)(F)F)cc1)=C(\C)O | 8.88%
O=C(O)/C=C/C(=O)NCCNc1ncc(C(F)(F)F)cc1Cl | 13.2%

Structure (SMILES) | hERG current change (%, negative = inhibition) at 1uM
COc1ccc(Br)cc1CNC(=O)CN1C(=O)C(c2ccccc2)Oc2cccnc21 (stereo not drawn) | 15.3%
CC(=O)c1nnn(-c2c(F)cccc2F)c1C | 12.1%
C/C(=N\Nc1ccc(C(F)(F)F)cc1[N+](=O)[O-])C1CC1 | 0.694%
CC1(C)CC(=O)C(C=NCCc2ccc(S(N)(=O)=O)cc2)=C(O)C1 | 4.73%
CCOC(=O)C1(Cc2ccc(OC)cc2)CCN(C(=O)CCn2cccn2)CC1 | 7.89%
CCOC(=O)c1c(C)n(C)c2ccc(OC)c(NC(=O)CN3CCN(Cc4ccccc4)CC3)c12 | 8.02%
CCCNC(=O)c1ccc(COc2ccc(CCC)cc2OC)o1 | -1.86%
C(#CCN1CCC(Cc2ccccc2)CC1)COCCOCc1ccccc1 | 9.32%
O=[N+]([O-])c1ccccc1/C=N/n1c(C(F)(F)F)n[nH]c1=S | 8.32%
Cn1cc(/C=C/C(=O)N2CCCC(C(=O)c3ccc(C(F)(F)F)cc3)C2)cn1 (stereo not drawn) | 7.37%
CC(C)(C)OC(=O)N1CCC(CC2CC(c3cccc(Br)c3)=NO2)(C(=O)O)CC1 (stereo not drawn) | 7%
COc1ccccc1Nc1nc(-c2sc(N)nc2C)cs1 | 8.63%
COCCCNC(=O)c1cc(-c2cccnc2)nc2ccccc12 | 24.4%
O=C(O)CNC(=O)c1ccc(NC(=O)/C(=C/c2ccccc2)NC(=O)c2ccccc2)cc1 | 25.2%
COC(=O)c1cn(CC(=O)Nc2ccc(OC)cc2)c2ccccc12 | 14.4%
CCn1ncc(S(=O)(=O)Nc2cc(Cl)ccc2C)c1C | 0.623%
CN1C(=O)c2ccc(NC(=O)c3ccc(Cl)cc3Cl)cc2C1=O | 11.5%
O=C(NC1CCCCC1)c1cccnc1Sc1ccccc1 | 13.3%
COc1cc(NC(=O)c2ccc3c(c2)OCCO3)ccc1NC(=O)c1ccco1 | 10.5%
CC(C)CNC(=O)C(=O)NCC1OCCCN1S(=O)(=O)c1cccs1 (stereo not drawn) | 14.3%
CNC(=O)COC(=O)c1ccccc1Oc1ccccc1 | 6.93%
COc1ccc(OC)c(S(=O)(=O)Nc2cccc3ccccc23)c1 | 12.8%
O=C(CN1CCOc2ccccc21)NCc1ccc(Cl)cc1 | -2%

Structure (SMILES) | hERG current change (%, negative = inhibition) at 1uM
Cc1ccc(OCCC(=O)OCC(=O)N2c3ccccc3NC(=O)C2(C)C)cc1 | -6.36%
O=C(c1cnn2c(C(F)F)cc(-c3ccccc3)nc12)N1CCN(Cc2ccc3c(c2)OCO3)CC1 | 11.1%
OC(CC1CC12c1ccccc1-c1ncccc12)(c1ccccc1)c1ccccc1 (stereo not drawn) | -3.31%
CN(C(=O)COc1ccc2ccc(=O)oc2c1)C1CCS(=O)(=O)C1 (stereo not drawn) | 38.4%
COc1ccc(-c2nc3ccccc3s2)cc1NC(C)=O | 3.12%
CCOC(=O)Cc1csc(NS(=O)(=O)c2cccc([N+](=O)[O-])c2)n1 | 16.3%
O=C(O)Cc1ccc(C(=O)CSc2ccccc2)s1 | 16.3%
O=C(CN1C(=O)NC2(CCCC2)C1=O)OCCOc1cccc(Br)c1 | 9.33%
S=C(c1ccc2c(c1)OCO2)N1CCOCC1 | 11.9%
CC(=O)N1CCC(C(=O)N2CCN(S(=O)(=O)c3cccs3)CC2)CC1 | 6.09%
CCCOc1ccc(C(=O)CCC(=O)OCC(=O)Nc2ccc(OCC)cc2)cc1 | 14.3%
Cc1ccc(CN2CCN(/N=C/c3cc(Br)cc(Br)c3O)CC2)c(C)c1 | 5.62%
CC(C)c1cc(C(=O)N/N=C/c2ccco2)n[nH]1 | 1.94%
CCOC(=O)CCn1cnc2ccc([N+](=O)[O-])cc2c1=O | -6.65%
CC(C)CCNC(=O)c1c(CSc2ccccc2)noc1C(=O)NCc1ccccc1 | 1.86%
Cc1cccc(NCC(=O)N/N=C\c2cccc(Oc3ccccc3)c2)c1 | 9.78%
COC(=O)C1=C(C)N(c2ccc(C)cc2)/C(=C/c2cccs2)C1=O | 15%
CCOC(=O)C1CCCN(C(=O)C(=O)Nc2ccc3nc4n(c(=O)c3c2)CCCCC4)C1 (stereo not drawn) | 12.7%
CCOC(=O)c1c(C)cc(=O)oc1C | 4.19%
COc1ccc(CNC(=O)COC(=O)c2ccc(Br)cc2)cc1 | 3.16%
O=C(N/N=C\C=C\c1ccc2c(c1)OCO2)c1ccc(F)cc1 | 15.6%
